Assay results taken from PubChem BioAssay AID686978 (National Center for Advancing Translational Sciences (NCATS), 2013).
Among all 420,000 compounds or so, about 64,000 (15%) were called active. This list was built around the results that the source calls inconclusive (neither active nor inactive); the mix of calls is not that of the screen. Calls follow the shape of the dose curve; as a rule, active = well fitted inhibition curve with a large enough effect; inconclusive = small, poorly fitted or top-dose-only effect; inactive = flat fitted curve, though single readings scatter. No potency is given beside an inconclusive call; the fits are too rough.

Assay: qHTS for Inhibitors of human tyrosyl-DNA phosphodiesterase 1 (TDP1): qHTS in cells in absence of CPT; also: nearly all actives have a fitted effect of over 55% in size
Settings: DT40 Tdp1-/- hTDP1 cells, no CPT, ATP luminescence, 48 h; activity change, negative = growth inhibition: at 46.2 µM (top of the series)
In short: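 Luminescent ATP content (CellTiter-Glo) served as the growth readout. Knockout chicken DT40 cells expressing human TDP1 were exposed to compounds without camptothecin for a minimum 48 hr at 37 °C.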
% is scaled to controls: 0 for no effect and ±100 for the full control effect; potency is read from the fitted curve at half-maximal effect; tags tell the direction and shape of the fitted curve.

Row | Compound | Potency | activity change, negative = growth inhibition
1 | O=C(Cc1cccs1)Nc1ccccc1-c1nc2ccccc2[nH]1 | inconclusive [inhibitor, single point] | –
2 | NCCN1C(=O)S/C(=C\c2ccc3c(c2)OCO3)C1=O | inconclusive [inhibitor, single point] | –
3 | CCCOc1ccc(/C=C/C(=O)NC2CCCCC2)cc1 | inconclusive [inhibitor, single point] | –
4 | Cc1ccn2c(NCc3ccc4c(c3)OCO4)c(-c3ccc(O)cc3)nc2c1 | inactive | –
5 | CC1Cc2ccccc2N1c1nc(C2CC2)nc2c1nnn2Cc1ccccc1 (stereo not drawn) | inconclusive [inhibitor, partial curve] | –
6 | CCOc1ccc(C(=O)Nc2ccc(NC(=O)c3ccccc3)c(C)c2)cc1[N+](=O)[O-] | inconclusive [inhibitor, single point] | –
7 | O=C(Nc1ccc(-c2cscn2)cc1)C1CCCN(Cc2ccc(CO)o2)C1 (stereo not drawn) | inactive | –
8 | COC(=O)c1c(OCc2ccccn2)cc(=O)n2c1CCN(Cc1ccc3c(c1)CCCN3C)CC2 | inconclusive [inhibitor, partial curve, poor fit] | –
9 | COc1ccc(CNC(=O)CN(C(=O)CCC(=O)Nc2ccccn2)c2cccc(C)c2)cc1 | inconclusive [inhibitor, partial curve] | –
10 | Cc1cc(C)n(CC(O)Cn2c(C)c(C)c3ccccc32)n1 (stereo not drawn) | inactive | –
11 | O=S(=O)(Nc1cc(F)ccc1F)c1ccc2[nH]c3c(c2c1)CCCCC3 | inconclusive [inhibitor, single point] | –
12 | COc1ccc(CCCc2nc3ccccc3[nH]2)cc1 | inconclusive [inhibitor, single point] | –
13 | O=C(C1CCC1)N1CCc2cc(S(=O)(=O)NCc3ccccn3)ccc21 | – | inconclusive: -31.9% [inhibitor]
14 | COc1ccccc1N1CCN(S(=O)(=O)CCNC(=O)c2ccc(OC(C)C)cc2)CC1 | inconclusive [inhibitor, single point] | –
15 | C/C(=C\C(=O)c1ccccc1)Nc1ccc(Cl)c(Br)c1 | inconclusive [inhibitor, single point] | –
16 | COc1ccc(CCNc2cc(C)nc(N)n2)cc1OC | inconclusive [inhibitor, partial curve] | –
17 | COc1ccc(C(=O)Nc2ccccc2C(=O)NC(Cc2ccc(O)cc2)C(=O)NNC(=O)c2ccccc2)cc1 (stereo not drawn) | inconclusive [inhibitor, single point] | –
18 | O=C(N/C(=C/c1ccccc1)C(=O)N1CCCCC1)c1ccc(Br)o1 | inconclusive [inhibitor, single point] | –
19 | O=C(Cc1ccc(Cl)c(Cl)c1)Nc1cccc(S(=O)(=O)N2CCOCC2)c1 | inconclusive [inhibitor, single point] | –
20 | CC(NS(C)(=O)=O)C(c1cccs1)N1CCN(c2ccccc2)CC1 (stereo not drawn) | inactive | –
21 | CC(=O)c1cc2c(cc1NC(=O)C1CC1)OCO2 | – | inconclusive: -31% [inhibitor]
22 | CCCCn1cnc2c(SCc3ccccn3)nc(N)nc21 | inactive | –
23 | O=C(Cc1ccccc1)NC(Nc1ccccc1)C(Cl)(Cl)Cl (stereo not drawn) | inactive | –
24 | Cc1ccc(NC(=O)c2cc(C)nc3ccccc23)c(Br)c1 | inconclusive [inhibitor, single point] | –
25 | Cc1csc(NC(=O)CSc2nnc(-c3ccccn3)n2-c2ccc(C)c(C)c2)n1 | inactive | –

Row | Compound | Potency | activity change, negative = growth inhibition
26 | COc1ccc(N2CCN(C(=O)C(Cc3ccccc3)NC(=O)c3ccccc3)CC2)cc1 (stereo not drawn) | inconclusive [inhibitor, single point] | –
27 | Cc1cc2c(cc1S(=O)(=O)C(C)CC(=O)NCc1ccco1)OCC(=O)N2 (stereo not drawn) | inactive | –
28 | COc1ccc(C(C)(O)c2nc(-c3cc(F)cc(F)c3)cs2)cc1 (stereo not drawn) | active: 16.4 µM | –
29 | Cc1[nH]c2ccc3ncccc3c2c1C | inconclusive [inhibitor, single point] | –
30 | CCc1nc(SCC(=O)N2CCN(c3ccccc3)CC2)c2oc3ccccc3c2n1 | active: 20.6 µM | –
31 | Nc1c(C(=O)Nc2ccc3c(c2)OCCO3)nnn1CCc1ccccc1 | active: 3.26 µM | –
32 | O=C(Nc1ccccc1)Nc1snnc1C(=O)Nc1cccc(O)c1 | inconclusive [inhibitor, single point] | –
33 | COc1ccccc1C1=NN(C(=S)Nc2ccccc2)C(c2ccco2)C1 (stereo not drawn) | inconclusive [inhibitor, single point] | –
34 | Nc1ccc(-c2nnc(-c3ccccc3)o2)cc1 | inactive | –
35 | CC(=O)c1nn(-c2cccc(Br)c2)cc1C(=O)c1ccccc1 | inactive | –
36 | CCc1ccccc1NC(=O)C1CCN(c2cnccn2)CC1 | inactive | –
37 | O=C(Cc1cccs1)N/N=C/c1ccc(OCc2ccccc2)cc1 | inconclusive [inhibitor, single point] | –
38 | Cc1c(C(=O)NC2CCCc3ccccc32)oc2ccccc12 (stereo not drawn) | inconclusive [inhibitor, full curve] | –
39 | CCOC(=O)C1=CN(Cc2cccc(F)c2)S(=O)(=O)N(CC)C1c1cccc(OC)c1 (stereo not drawn) | inconclusive [inhibitor, single point] | –
40 | Cc1cc(N)n(-c2nc(-c3cccnc3)nc3ccccc23)n1 | active: 18.4 µM | –
41 | O=C1c2cccc(NCCNCCO)c2C(=O)c2cccc(NCCNCCO)c21 | active: 0.731 µM | –
42 | CC(C)(C)OC(=O)N1CCC[C@H]1c1nnc(SCc2c(F)cccc2Cl)o1 | inconclusive [inhibitor, single point] | –
43 | COc1ccccc1NS(=O)(=O)c1cccc(N=C2N=C(N)c3ccccc32)c1 | active: 23.1 µM | –
44 | Cc1cccc(C)c1NC(=O)c1csc([C@H]2C[C@H](O)[C@@H](CO)O2)n1 | inactive | –
45 | CCCn1c(=O)c2c(C(F)(F)F)cc(-c3cccs3)nc2n(CCC)c1=O | – | inconclusive: -30.3% [inhibitor]
46 | Cc1ccccc1-n1cc(CNCc2c(C(=O)N(C)C)nc3ccc(Cl)cn23)cn1 | inconclusive [inhibitor, single point] | –
47 | CCN(CC)S(=O)(=O)c1ccc2c(c1)c(=O)c(C(=O)NCc1cccs1)cn2C | inconclusive [inhibitor, single point] | –
48 | CC(C)Oc1cccc(C2CC(=O)Nc3cc4c(cc32)OCO4)c1 (stereo not drawn) | active: 2.59 µM | –
49 | CC(C)[C@H](N)C(=O)NC[C@H]1CC[C@H](C(=O)N[C@@H](Cc2ccccc2)C(=O)O)CC1 | inactive | –
50 | Cc1ccc(NS(=O)(=O)c2cc(NC(=O)c3cc4c(s3)CCCC4)ccc2C)c(C)c1 | inconclusive [inhibitor, single point] | –

Row | Compound | Potency | activity change, negative = growth inhibition
51 | CC(=O)c1ccc(Nc2ccc3cc(S(=O)(=O)N4CCCC4)ccc3n2)cc1 | inconclusive [inhibitor, single point] | –
52 | CC1Cc2ccccc2N1C(=O)CSc1nc2c(c(=O)n(C)c(=O)n2C)n1Cc1ccccc1 (stereo not drawn) | active: 20.6 µM | –
53 | Cc1ccc(C(=O)OCC(=O)NCc2ccc(F)cc2)o1 | inactive | –
54 | O=C(CS(=O)c1ccc(C(F)(F)F)cc1[N+](=O)[O-])Oc1ccc(Cl)cc1 (stereo not drawn) | active: 11.6 µM | –
55 | N#CCN1CCN(CCC(=O)Nc2ccc(OCc3ccccc3)cc2)CC1 | active: 23.1 µM | –
56 | CCn1c(=O)c2cc(C(=O)NCC(OC)OC)sc2c2ccccc21 | inconclusive [inhibitor, partial curve] | –
57 | CC(C)CCn1nnc2sc(-c3ccccc3)cc2c1=O | inactive | –
58 | Cc1noc(C)c1C(=O)OCC(=O)Nc1c(F)cccc1F | active: 18.4 µM | –
59 | Cc1ccc(S(=O)(=O)N(CC2CO2)c2ccccc2[N+](=O)[O-])cc1 (stereo not drawn) | inconclusive [inhibitor, single point] | –
60 | N#Cc1c2n(c3c(=O)n(Cc4ccc(Cl)cc4)cnc13)CCCC2 | inconclusive [inhibitor, single point] | –
61 | O=[N+]([O-])c1ccc(CN2CC(N3CCC(c4ccccc4)CC3)CS2(=O)=O)cc1 (stereo not drawn) | active: 23.1 µM | –
62 | CCC(C(=O)NC(N)=O)c1ccccc1 (stereo not drawn) | inactive | –
63 | CCN(c1ccccc1)S(=O)(=O)c1ccc(Cl)c(C(=O)NC2CCN(Cc3ccccc3)CC2)c1 | active: 6.51 µM | –
64 | COc1ccccc1-c1nc(Nc2ccncc2)c2ccccc2n1 | inconclusive [inhibitor, partial curve, poor fit] | –
65 | COc1ccc(-n2nnnc2SCC(=O)Nc2cccc(O)c2)cc1 | inconclusive [inhibitor, partial curve] | –
66 | O=C(Cc1ccc([N+](=O)[O-])cc1)NCCS(=O)(=O)N1CCN(c2ccccc2)CC1 | inconclusive [inhibitor, full curve] | –
67 | COc1ccc(N/C=C/C(=O)c2ccccc2)cc1 | inconclusive [inhibitor, full curve, poor fit] | –
68 | CCOC(=O)CC(NC(=O)C(CC)c1ccccc1)c1ccccc1Cl (stereo not drawn) | inconclusive [inhibitor, single point] | –
69 | COc1ccc(Cc2noc(CN3CCN(Cc4csc(C)n4)CC3)n2)cc1OC | inactive | –
70 | c1ccc2c(c1)CC(N1CCCCC1)c1ccccc1S2 (stereo not drawn) | inconclusive [inhibitor, single point] | –
71 | CCCCCCCCNC(=O)/C(C#N)=C/c1ccc(SC)cc1 | inconclusive [inhibitor, partial curve] | –
72 | O=[N+]([O-])c1ccc(S(=O)(=O)Nc2ccc3c(c2)OCCO3)cc1 | active: 16.4 µM | –
73 | Cn1c2c(c(=O)n(C)c1=O)C(CC(=O)Nc1ccccc1)C(=O)N2 (stereo not drawn) | inactive | –
